Laboratory results taken from US4540700A, “Treatment of diabetic complications with certain spiro-imidazolidine-diones” (Alcon Laboratories, Inc., priority 1984, dated 1985).
This continues a long series; more values of the same kind are listed elsewhere.

Test system: cataract formation in galactocemic rats
Assay: in vivo dose response by intubation (per oral) in galactocemic rats, cataract (vacuole) formation
Set-up: species or system Charles River CD (Sprague-Dawley derived) male rats
Experimental: B. In vivo dose response studies were conducted to test the in vivo activity of the following compounds by intubation (per oral) in galactocemic rats on a 30% galactose diet previously described:
Stock suspensions of the test compounds and all dilutions of the compound were formulated with 0.03% by weight Tween 80.
Healthy, Charles River CD (outbred albino, Sprague-Dawley derived) male rats, aged 20-30 days, without observable ocular defects and ranging in weight from 35-45 grams, were acclimated to experimental conditions (in quarantine) for two days prior to beginning the study.
Rats were individually assigned to one of twenty-three groups according to a random number schedule. Two rats, belonging to the same drug-diet treatment group, were housed per cage. Treatment and control groups consisted of six (6) rats each with no replacement in the event of death, and were designated as follows:
Lenses of all eyes were examined with a hand-held ophthalmoscope in the early stages of cataract development and a penlight for the stages, snowflake-like, snowflake, and nuclear cataract. Lens grading occurred every day for the first ten study days, and then every other day until study Day 14.
The relative potency determination was made at 7 drug levels over half log dose intervals. The response (percent cataracts formed and/or the time to cataract formation) was plotted against mg/kg and/or moles/kg.
The study was directed to the suppression and/or elimination of the initial stages of cataract development characterized by vacuoles or snowflake-likeopacities only. It was assumed therefore that suppression and/or elimination of vacuoles or lens opacification by the test drugs affects the transport, absorption and/or metabolism of galactose in such a manner as to prevent subsequent osmotic disturbances normally leading to tissue degeneration and advanced cataract. Advanced cataract defined as stages 2-4 of the Sipple classification was assumed to be of secondary importance to the etiology of cataract inhibition.
In the event where cataract stage other than vacuole formed, such as snowflake-like opacities, this cataract was counted similarly as vacuole in percent cataract formation.
This study yielded this expected effect in the control groups.
All animals were fed Purina Laboratory Chow and water, ad libitum, for the two day acclimation period. All drugs were dosed orally by intubation using an animal feeding needle (Popper and Sons), 18 or 20 gauge, attached to a 1 or 3 ml syringe. Once the dosing time schedule was established, the schedule was followed throughout the study to compensate for any diurnal variation.
The animals were kept on a twelve hour day/night cycle. The temperature and humidity were determined each day at the scheduled dosing time of 1:00 p.m.
The animals were weighed every other day and adjustments to dosage amounts to compensate for weight gain were made each day prior to the dose time. All food was routinely withheld from all animal groups for four hours (9:00 a.m.) prior to the drug dose and restored two hours (3:00 p.m.) post-dose. Otherwise sufficient amounts of chow or diet mixture were maintained in the food hopper to allow the animals to eat ad libitum. There were two days of drug dosage with the animals remaining on Purina Laboratory Chow (Days 1 and 2). The 30% galactose diet mixture was introduced to the animals two hours post-dose on Day 3 which constituted Day 1 of the study.
All eyes were examined with a hand-held ophthalmoscope and/or penlight at the times designated in the Experimental Design section.
It has been found in previous studies that dilation of the eye with a mydriactic (i.e. Mydriacyl) is not necessary for accurate grading, due to the semi-transparent nature of the rat iris. In the early stages (i.e., grades -, ±, and +) the lens was observed by reflecting the ophthalmoscope beam off the retina back through the lens and iris. Using this technique, vacuoles appear as dark, almost opaque patches. […]

## O=C1NC(=O)C2(N1)c1ccccc1-c1ccc(F)cc12 (racemic) [Compound L, dl-Spiro(2-fluorofluoren-9,4'-imidazolidine)-2',5'-dione]
0.040 mg/kg p.o., Day 6
  Percent of Rat Eyes With at Least Vacuoles Formed: 33.3%
0.040 mg/kg p.o., Day 7
  Percent of Rat Eyes With at Least Vacuoles Formed: 50.0%
0.040 mg/kg p.o., Day 8
  Percent of Rat Eyes With at Least Vacuoles Formed: 83.3%
0.040 mg/kg p.o., Day 9
  Percent of Rat Eyes With at Least Vacuoles Formed: 83.3%
0.040 mg/kg p.o., Day 10
  Percent of Rat Eyes With at Least Vacuoles Formed: 100.0%
0.040 mg/kg p.o., Day 12
  Percent of Rat Eyes With at Least Vacuoles Formed: 100.0%
0.040 mg/kg p.o., Day 14
  Percent of Rat Eyes With at Least Vacuoles Formed: 100.0%
0.126 mg/kg p.o., Day 6
  Percent of Rat Eyes With at Least Vacuoles Formed: 33.3%
0.126 mg/kg p.o., Day 7
  Percent of Rat Eyes With at Least Vacuoles Formed: 33.3%
0.126 mg/kg p.o., Day 8
  Percent of Rat Eyes With at Least Vacuoles Formed: 50.0%
0.126 mg/kg p.o., Day 9
  Percent of Rat Eyes With at Least Vacuoles Formed: 50.0%
0.126 mg/kg p.o., Day 10
  Percent of Rat Eyes With at Least Vacuoles Formed: 50.0%
0.126 mg/kg p.o., Day 12
  Percent of Rat Eyes With at Least Vacuoles Formed: 83.3%
0.126 mg/kg p.o., Day 14
  Percent of Rat Eyes With at Least Vacuoles Formed: 83.3%
0.4 mg/kg p.o., Day 6
  Percent of Rat Eyes With at Least Vacuoles Formed: 0.0%
0.4 mg/kg p.o., Day 7
  Percent of Rat Eyes With at Least Vacuoles Formed: 8.3%
0.4 mg/kg p.o., Day 8
  Percent of Rat Eyes With at Least Vacuoles Formed: 41.7%
0.4 mg/kg p.o., Day 9
  Percent of Rat Eyes With at Least Vacuoles Formed: 41.7%
0.4 mg/kg p.o., Day 10
  Percent of Rat Eyes With at Least Vacuoles Formed: 66.7%
0.4 mg/kg p.o., Day 12
  Percent of Rat Eyes With at Least Vacuoles Formed: 83.3%
0.4 mg/kg p.o., Day 14
  Percent of Rat Eyes With at Least Vacuoles Formed: 100.0%
1.26 mg/kg p.o., Day 7
  Percent of Rat Eyes With at Least Vacuoles Formed: 0.0%
1.26 mg/kg p.o., Day 8
  Percent of Rat Eyes With at Least Vacuoles Formed: 0.0%
1.26 mg/kg p.o., Day 9
  Percent of Rat Eyes With at Least Vacuoles Formed: 0.0%
1.26 mg/kg p.o., Day 10
  Percent of Rat Eyes With at Least Vacuoles Formed: 0.0%
1.26 mg/kg p.o., Day 12
  Percent of Rat Eyes With at Least Vacuoles Formed: 0.0%
1.26 mg/kg p.o., Day 14
  Percent of Rat Eyes With at Least Vacuoles Formed: 0.0%

## O=C1NC(=O)C2(N1)c1cc(F)ccc1-c1ccc(F)cc12 [M, Spiro-[2,7-difluorofluoren-9,4'-imidazolidine]-2',5'-dione]
0.040 mg/kg p.o., Day 6
  Percent of Rat Eyes With at Least Vacuoles Formed: 50.0%
0.040 mg/kg p.o., Day 7
  Percent of Rat Eyes With at Least Vacuoles Formed: 66.7%
0.040 mg/kg p.o., Day 8
  Percent of Rat Eyes With at Least Vacuoles Formed: 83.3%
0.040 mg/kg p.o., Day 9
  Percent of Rat Eyes With at Least Vacuoles Formed: 83.3%
0.040 mg/kg p.o., Day 10
  Percent of Rat Eyes With at Least Vacuoles Formed: 91.7%
0.040 mg/kg p.o., Day 12
  Percent of Rat Eyes With at Least Vacuoles Formed: 100.0%
0.040 mg/kg p.o., Day 14
  Percent of Rat Eyes With at Least Vacuoles Formed: 100.0%
0.126 mg/kg p.o., Day 6
  Percent of Rat Eyes With at Least Vacuoles Formed: 8.3%
0.126 mg/kg p.o., Day 7
  Percent of Rat Eyes With at Least Vacuoles Formed: 25.0%
0.126 mg/kg p.o., Day 8
  Percent of Rat Eyes With at Least Vacuoles Formed: 66.7%
0.126 mg/kg p.o., Day 9
  Percent of Rat Eyes With at Least Vacuoles Formed: 66.7%
0.126 mg/kg p.o., Day 10
  Percent of Rat Eyes With at Least Vacuoles Formed: 66.7%
0.126 mg/kg p.o., Day 12
  Percent of Rat Eyes With at Least Vacuoles Formed: 66.7%
0.126 mg/kg p.o., Day 14
  Percent of Rat Eyes With at Least Vacuoles Formed: 75.0%
0.4 mg/kg p.o., Day 6
  Percent of Rat Eyes With at Least Vacuoles Formed: 0.0%
0.4 mg/kg p.o., Day 7
  Percent of Rat Eyes With at Least Vacuoles Formed: 0.0%
0.4 mg/kg p.o., Day 8
  Percent of Rat Eyes With at Least Vacuoles Formed: 0.0%
0.4 mg/kg p.o., Day 9
  Percent of Rat Eyes With at Least Vacuoles Formed: 0.0%
0.4 mg/kg p.o., Day 10
  Percent of Rat Eyes With at Least Vacuoles Formed: 0.0%
0.4 mg/kg p.o., Day 12
  Percent of Rat Eyes With at Least Vacuoles Formed: 0.0%
0.4 mg/kg p.o., Day 14
  Percent of Rat Eyes With at Least Vacuoles Formed: 0.0%
1.26 mg/kg p.o., Day 7
  Percent of Rat Eyes With at Least Vacuoles Formed: 0.0%
1.26 mg/kg p.o., Day 8
  Percent of Rat Eyes With at Least Vacuoles Formed: 0.0%
1.26 mg/kg p.o., Day 9
  Percent of Rat Eyes With at Least Vacuoles Formed: 0.0%
1.26 mg/kg p.o., Day 10
  Percent of Rat Eyes With at Least Vacuoles Formed: 0.0%
1.26 mg/kg p.o., Day 12
  Percent of Rat Eyes With at Least Vacuoles Formed: 0.0%
1.26 mg/kg p.o., Day 14
  Percent of Rat Eyes With at Least Vacuoles Formed: 0.0%

## O=C1NC(=O)C2(CCOc3ccc(F)cc32)N1 (racemic) [Sarges Racemic, dl-spiro-(6-fluorochroman-4,4'-imidazolidine)-2',5'-dione, reference compound]
0.040 mg/kg p.o., Day 6
  Percent of Rat Eyes With at Least Vacuoles Formed: 0.0%
0.040 mg/kg p.o., Day 7
  Percent of Rat Eyes With at Least Vacuoles Formed: 8.3%
0.040 mg/kg p.o., Day 8
  Percent of Rat Eyes With at Least Vacuoles Formed: 50.0%
0.040 mg/kg p.o., Day 9
  Percent of Rat Eyes With at Least Vacuoles Formed: 66.7%
0.040 mg/kg p.o., Day 10
  Percent of Rat Eyes With at Least Vacuoles Formed: 100.0%
0.040 mg/kg p.o., Day 12
  Percent of Rat Eyes With at Least Vacuoles Formed: 100.0%
0.040 mg/kg p.o., Day 14
  Percent of Rat Eyes With at Least Vacuoles Formed: 100.0%
0.126 mg/kg p.o., Day 6
  Percent of Rat Eyes With at Least Vacuoles Formed: 33.3%
0.126 mg/kg p.o., Day 7
  Percent of Rat Eyes With at Least Vacuoles Formed: 33.3%
0.126 mg/kg p.o., Day 8
  Percent of Rat Eyes With at Least Vacuoles Formed: 41.7%
0.126 mg/kg p.o., Day 9
  Percent of Rat Eyes With at Least Vacuoles Formed: 75.0%
0.126 mg/kg p.o., Day 10
  Percent of Rat Eyes With at Least Vacuoles Formed: 100.0%
0.126 mg/kg p.o., Day 12
  Percent of Rat Eyes With at Least Vacuoles Formed: 100.0%
0.126 mg/kg p.o., Day 14
  Percent of Rat Eyes With at Least Vacuoles Formed: 100.0%
0.4 mg/kg p.o., Day 6
  Percent of Rat Eyes With at Least Vacuoles Formed: 33.3%
0.4 mg/kg p.o., Day 7
  Percent of Rat Eyes With at Least Vacuoles Formed: 33.3%
0.4 mg/kg p.o., Day 8
  Percent of Rat Eyes With at Least Vacuoles Formed: 50.0%
0.4 mg/kg p.o., Day 9
  Percent of Rat Eyes With at Least Vacuoles Formed: 58.3%
0.4 mg/kg p.o., Day 10
  Percent of Rat Eyes With at Least Vacuoles Formed: 83.3%
0.4 mg/kg p.o., Day 12
  Percent of Rat Eyes With at Least Vacuoles Formed: 83.3%
0.4 mg/kg p.o., Day 14
  Percent of Rat Eyes With at Least Vacuoles Formed: 100.0%
1.26 mg/kg p.o., Day 7
  Percent of Rat Eyes With at Least Vacuoles Formed: 0.0%
1.26 mg/kg p.o., Day 8
  Percent of Rat Eyes With at Least Vacuoles Formed: 8.3%
1.26 mg/kg p.o., Day 9
  Percent of Rat Eyes With at Least Vacuoles Formed: 16.7%
1.26 mg/kg p.o., Day 10
  Percent of Rat Eyes With at Least Vacuoles Formed: 83.3%
1.26 mg/kg p.o., Day 12
  Percent of Rat Eyes With at Least Vacuoles Formed: 100.0%
1.26 mg/kg p.o., Day 14
  Percent of Rat Eyes With at Least Vacuoles Formed: 100.0%
